Test results as given in paper PMC4336329 (PLoS ONE, 2015).
In all, about 310,000 compounds went through this assay and about 2,200 (0.71%) showed an effect of 50% or more. The effect is printed as a negative number. The list shows a part of the results.

molecular target: human ether-à-go-go-related gene (hERG) potassium channel (human, UniProt Q12809); assay: primary screen, population patch clamp on CHO cells stably expressing hERG
Sequence (Q12809 whole entry, looked up): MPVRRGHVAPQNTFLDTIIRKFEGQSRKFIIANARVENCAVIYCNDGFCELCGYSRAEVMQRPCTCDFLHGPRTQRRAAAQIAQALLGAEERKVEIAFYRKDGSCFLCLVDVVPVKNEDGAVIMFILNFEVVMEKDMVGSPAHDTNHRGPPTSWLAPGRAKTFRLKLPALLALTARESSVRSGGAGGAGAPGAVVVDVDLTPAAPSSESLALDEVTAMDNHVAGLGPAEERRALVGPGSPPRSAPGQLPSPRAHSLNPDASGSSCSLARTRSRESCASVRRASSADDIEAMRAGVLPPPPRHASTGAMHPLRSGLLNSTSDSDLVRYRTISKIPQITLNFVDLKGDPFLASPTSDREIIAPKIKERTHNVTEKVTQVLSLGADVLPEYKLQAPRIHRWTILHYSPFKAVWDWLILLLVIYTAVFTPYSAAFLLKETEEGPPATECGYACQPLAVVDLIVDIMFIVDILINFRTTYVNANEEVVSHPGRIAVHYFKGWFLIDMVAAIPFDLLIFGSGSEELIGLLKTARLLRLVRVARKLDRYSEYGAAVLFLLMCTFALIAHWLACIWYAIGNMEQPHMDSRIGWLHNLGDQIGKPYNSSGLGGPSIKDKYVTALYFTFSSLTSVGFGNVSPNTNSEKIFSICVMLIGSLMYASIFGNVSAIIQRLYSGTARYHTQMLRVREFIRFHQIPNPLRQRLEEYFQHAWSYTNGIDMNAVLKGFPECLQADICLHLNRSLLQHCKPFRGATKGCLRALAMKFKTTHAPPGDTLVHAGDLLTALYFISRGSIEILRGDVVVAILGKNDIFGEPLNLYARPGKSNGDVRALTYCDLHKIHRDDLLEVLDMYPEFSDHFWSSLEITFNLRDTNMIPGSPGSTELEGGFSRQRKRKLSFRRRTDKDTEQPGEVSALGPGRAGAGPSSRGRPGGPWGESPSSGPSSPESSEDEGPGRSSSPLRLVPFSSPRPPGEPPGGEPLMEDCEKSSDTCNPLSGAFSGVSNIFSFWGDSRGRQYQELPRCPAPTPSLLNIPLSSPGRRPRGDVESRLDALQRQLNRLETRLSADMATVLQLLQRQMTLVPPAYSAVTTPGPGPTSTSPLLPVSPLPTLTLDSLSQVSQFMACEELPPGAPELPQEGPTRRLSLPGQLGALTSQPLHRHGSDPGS

SMILES	hERG current change (%, negative = inhibition) at 1uM [%]
Cc1cc(N2CCCC2)ccc1/C=C1/C(=O)N(C)C(=S)N1C	2.66
COc1cc(CNCCSc2nnnn2C)cc(OC)c1OC.Cl	3.45
Cc1ccccc1-n1c(=O)n(CCc2ccccc2)c(=O)c2[nH]cnc21	11.4
O=CN1c2ccccc2CSc2ccccc21	7.97
CCCc1cc(C(=O)NCC(C)C)no1	6.06
COc1ccc(OC)c(-c2nn(-c3ccccc3)cc2C(=O)NCC2CCCO2)c1 (stereo not shown)	9.47
CCN(CC(=O)Nc1ccc(OC)cc1)C(=O)COc1cccc2c1OC(C)(C)C2	1.69
O=C(/C=C/c1c[nH]c2ccccc12)c1c(O)n(CCc2ccccc2)c(=O)[nH]c1=O	18.9
COc1cc(NC(=O)CSc2nc3ccccc3cc2C)c(C(=O)O)cc1OC	9.58
Cc1cccc(NC(=O)c2ccc3c(c2)CCN3S(C)(=O)=O)c1	12.7
COc1ccc(CNC(=O)CN2C(=O)C(c3ccccc3)Oc3cccnc32)cc1 (stereo not shown)	-0.864
Cn1cnnc1SCC(=O)Nc1nc(-c2ccc(F)cc2)cs1	12.2
COc1ccc(CCNC(=O)C2CCCN(C(=O)N(C)C)C2)c(OC)c1 (stereo not shown)	12.5
Cn1c(SCC(=O)c2ccc3c(c2)OCO3)nnc1-c1ccccn1	7.92
Cc1cc(N2CCN(C(=O)c3ccco3)CC2)n2ncc(-c3ccccc3)c2n1	-8.34
CCc1cc2cc(C(=O)Nc3ccccc3F)sc2s1	-4.09
CCN(CC)C(=O)Cn1c(=O)n(-c2ccccc2)c(=O)c2sccc21	9.95
OC(c1ccccn1)C1CCN(Cc2nc(C(c3ccccc3)c3ccccc3)no2)CC1 (stereo not shown)	-5.42
O=C(NCCN1CCCCC1)c1ccc(F)cc1Cl	18.7
COc1ccc(N2CCN(C(=O)COC(=O)Cc3ccc(F)cc3)CC2)cc1	3.73
CCc1nn(CCCC(=O)N2CCc3ccccc3C2)c(=O)c2cc3occc3n12	-1.94
CCN(CC)CCCNC(=O)Cn1cc2c(n1)CCC(C)C2 (stereo not shown)	9.02
CC1=C(C(=O)OC(C)C)C(c2cccs2)N2C(=O)CCSC2=N1 (stereo not shown)	0.598

SMILES	hERG current change (%, negative = inhibition) at 1uM [%]
Cc1ccc(-n2nnc(-c3cccnc3)n2)cc1	11
OCCC1CN(Cc2cc3ccccc3o2)CCN1Cc1ccc(F)cc1 (stereo not shown)	15.2
CCOC(=O)Nc1sc(=S)n(C)c1C	4.12
CCOC(=O)C(C(=O)OCC)=C1OC(=O)c2ccccc21	3.66
COC(=O)c1cc(Br)ccc1NC(=O)Nc1ccc(C)cc1	9.97
O=C(CCS(=O)(=O)c1ccccc1)NCc1ccccc1	5.37
c1ccc(CNc2cnccn2)cc1	-3.35
O=C(COc1ccc(S(=O)(=O)N2CCOCC2)cc1)N1CCOCC1	8.17
CCc1cc2c(=O)c(-c3cscn3)coc2cc1O	4.59
COCCNCC(=O)Nc1ccc(OC(F)(F)F)cc1.Cl	-13
CCN(CC(=O)NCc1ccc(F)cc1)Cc1cc(=O)n2ccsc2n1	12.8
CC(NC(=O)c1ccccc1Br)c1nnc(SCC(=O)NC2=NCCS2)n1C (stereo not shown)	12.6
O=C(CSc1nc(-c2cccs2)cc(C(F)(F)F)n1)NCc1ccccc1	3.12
CCC1CCCCN1S(=O)(=O)c1ccc2c(c1)CCN2C(=O)C1CCC1 (stereo not shown)	5.13
COc1ccc(/C=N/NC(=O)c2cnccn2)cc1O	3.05
O=C(Nc1ccc(N2CCCC2)cc1)C(c1ccccc1)c1ccccc1	11.5
CC(=O)Nc1ccc(S(=O)(=O)N(C)S(=O)(=O)c2ccc(F)cc2)cc1	-19.4
COc1cccc(/C=C2\CCCCC2=O)c1	13.3
O=C(CN1C(=O)c2ccccc2C1=O)Nc1ccccc1C(=O)NC1CCCCCC1	6.73
CCCCCCn1c(N)c(C#N)c2ccc([N+](=O)[O-])cc2c1=O	21.1
CC12CC3(C)CC(C)(C1)CC(C(=O)NC(=S)N1CCOCC1)(C2)C3	5.29
Cc1cccc2cc(-c3nc4ccc(C(=O)O)cc4[nH]3)c(=O)oc12	7.84
O=C(O)C1CCC(c2ccc(-c3ccccc3)cc2)CC1 (stereo not shown)	-0.992

SMILES	hERG current change (%, negative = inhibition) at 1uM [%]
Cc1ccc(S(=O)(=O)NN2C(=O)/C(=C/c3cccs3)SC2=S)cc1	0.665
COc1cccc(CN2CCC(n3nccc3NC(=O)CCOc3ccccc3)CC2)c1	-26.2
O=C(CCCCCN1C(=O)c2cccc3cccc(c23)C1=O)NCCCO	11.9
Cc1cc(C(=O)NNCc2ccccc2)no1	0.722
CCOC(=O)Cn1c(C(=O)OCC)cc2sccc21	12.7
CCCCn1c(SCC(=O)c2ccc3c(c2)OCCO3)nnc1-c1ccco1	1.92
Cc1ccc(C)c(NC(=O)CSc2nnc(CNC(=O)c3cccs3)o2)c1	6.04
O=C(CCC(=O)N1CCN(Cc2ccccc2)CC1)Nc1nnc(C2CCCCC2)s1	13.6
CN(C(=O)CC1C(=O)NCCN1Cc1ccc(F)c(F)c1)C1CCOCC1 (stereo not shown)	17
CSc1ccccc1OCc1cc(C(=O)NCCn2ccnc2C)no1	2.35
Cc1ccc(S(=O)(=O)N2CCCCC2)cc1NC(=O)CNc1ccc(C(F)(F)F)cc1	6.44
O=C(O)[C@@H]1CCCN1S(=O)(=O)c1cccc2cccnc12	16.2
CN(C)c1ccc(/C=C/C(=O)c2ccc(C(C)(C)C)cc2)cc1[N+](=O)[O-]	7.35
CCOC(=O)C1=C(c2ccccc2)NC(=O)NC1c1ccc(O)c(OCC)c1 (stereo not shown)	17.2
COCCn1c(SCC(=O)N2CCC(C)CC2)nc2ccccc2c1=O	-57.9
O=C(Oc1ccc(C(=S)N2CCC(O)CC2)cc1)c1ccc(Cl)cc1	-0.343
CC1=C(C(=O)O)N2C(=O)C(NC(=O)c3nn(C)c(C)c3Cl)C2SC1 (stereo not shown)	11.3
O=C(NCC1(c2ccccc2)CCCC1)c1ccccc1	8.99
Cc1ccc(C(=O)OCC(=O)Nc2ncc(C(F)(F)F)cc2Cl)cc1NC(=O)c1ccco1	-41.7
COc1ccc(S(=O)(=O)Nc2cccc(-c3ccc(N4CCCCCC4)nn3)c2)c(OC)c1	13.4
CCOC(=O)CC(=O)N/N=C/c1c(N)n(C)c(=O)n(C)c1=O	-15.9
CCN1CCN(C(=O)Cc2coc3cc(C)cc(C)c23)CC1	2.98
O=C(COC(=O)CCCSc1nc2ccccc2[nH]1)Nc1ccc(Cl)cc1	-4.28

SMILES	hERG current change (%, negative = inhibition) at 1uM [%]
CN(C)C(CNC(=O)c1ccc(C(=O)c2ccccc2)cc1)c1ccccc1 (stereo not shown)	11.9
CCOC(=O)CCCCC(=O)NC(CO)C(=O)NC (stereo not shown)	8.11
CC1CCCN(Cc2cnc(Cl)s2)C1 (stereo not shown)	14.1
O=C(N=C1c2ccccc2CN1c1ccc(F)c(F)c1)c1cccnc1	8.47
Br.N=c1n(CC(=O)c2cccc([N+](=O)[O-])c2)c2ccccc2n1Cc1ccccc1	-2.49
N#C/C(=C(/O)c1cc2ccccc2o1)c1nc2ccccc2s1	11.2
CCCN1CCC(NC(=O)Nc2cccc3ccccc23)CC1	7.09
O=C(c1ccccc1Cl)N1CCNCC1	15.9
NCCNc1ccc(C(=O)N2c3ccccc3Sc3ccccc32)cc1[N+](=O)[O-]	11.6
COc1cc(/C=N/NC(=O)C2CC(=O)N(c3ccc(C)cc3)C2)cc(OC)c1OC (stereo not shown)	15.5
O=C(Nc1cccc2ccccc12)c1onc2c1CCCC2	6.48
Cc1ccccc1COC(=O)c1nn(-c2ccccc2)nc1N	8.78
COc1ccc(-c2cc(CC3(C(=O)O)CCN(C(=O)OC(C)(C)C)CC3)on2)c(OC)c1	9
CCOC(=O)c1cc(C)sc1NC(=O)CCC(=O)O	-0.629
CC(C(=O)O)N1C(=O)C2C3CC(C2C1=O)C1C(c2ccccc2)c2sc(=O)[nH]c2SC31 (stereo not shown)	16.1
CC(C)(C)c1ccc(C(=O)C2CCCN(Cc3ccon3)C2)cc1 (stereo not shown)	14.6
COCCOC(=O)C1=C(C)NC(=O)N(C(C)=O)C1c1ccc(Cl)cc1 (stereo not shown)	11.7
Fc1ccc(C2CC(c3ccccc3)n3ncnc3N2)cc1 (stereo not shown)	-1.41
Cc1cnc(NC(=O)c2cccs2)s1	12.9
CCOc1ccc(C2C(C(=O)c3ccco3)=C(O)C(=O)N2CCCn2ccnc2)cc1OCC (stereo not shown)	10.1
CN(CC(=O)Nc1ccccc1Cl)C(=O)COC(=O)CN1C(=O)NC2(CCCC2)C1=O	15.3
CCC(=O)NNc1nc2c(Cl)cccc2s1	8.56
